{
  "source": "PubChem BioAssay (NCI)",
  "test_in_all_cases": "NCI tumour cell line growth inhibition, 48 h",
  "key": {"[1]": {"test_system": "K-562 leukemia"}, "[2]": {"test_system": "U251 CNS"}, "[3]": {"test_system": "XF 498 CNS"}, "[4]": {"test_system": "SK-MEL-2 melanoma"}, "[5]": {"test_system": "SK-MEL-28 melanoma"}, "[6]": {"test_system": "SNB-75 CNS"}, "[7]": {"test_system": "RPMI-8226 leukemia"}, "[8]": {"test_system": "MALME-3M melanoma"}, "[9]": {"test_system": "SF-268 CNS"}, "[10]": {"test_system": "DMS 114 small cell lung"}, "[11]": {"test_system": "A549 NSCLC"}, "[12]": {"test_system": "ACHN renal"}, "[13]": {"test_system": "SK-OV-3 ovarian"}, "[14]": {"test_system": "OVCAR-3 ovarian"}, "[15]": {"test_system": "MOLT-4 leukemia"}, "[16]": {"test_system": "A498 renal"}, "[17]": {"test_system": "786-0 renal"}, "[18]": {"test_system": "MCF7 breast"}, "[19]": {"test_system": "HOP-92 NSCLC"}, "[20]": {"test_system": "UACC-62 melanoma"}, "[21]": {"test_system": "COLO 205 colon"}, "[22]": {"test_system": "IGROV1 ovarian"}, "[23]": {"test_system": "M14 melanoma"}, "[24]": {"test_system": "SNB-78 CNS"}, "[25]": {"test_system": "RXF 393 renal"}, "[26]": {"test_system": "CAKI-1 renal"}, "[27]": {"test_system": "OVCAR-4 ovarian"}, "[28]": {"test_system": "SF-539 CNS"}, "[29]": {"test_system": "SW-620 colon"}, "[30]": {"test_system": "SK-MEL-5 melanoma"}, "[31]": {"test_system": "EKVX NSCLC"}, "[32]": {"test_system": "M19-MEL melanoma"}, "[33]": {"test_system": "LOX IMVI melanoma"}, "[34]": {"test_system": "HCT-15 colon"}, "[35]": {"test_system": "P388 leukemia"}, "[36]": {"test_system": "P388/ADR leukemia"}, "[37]": {"test_system": "CCRF-CEM leukemia"}},
  "note": "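A five-concentration, 48-hour dose response in 96-well plates underlies each endpoint, interpolated linearly between surrounding concentrations. GI50 is the concentration that inhibits growth by half.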 Certain results were filed several times, with different values. They are shown here; other results are not. An entry can have further records. The tests behind the records often covered other concentration ranges, not given here; a value can be the end of its range.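 Definition used: TGI = concentration required for complete inhibition of growth.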",
  "data": [
    {"smiles": "O=C1N[C@H]2[C@H](O)[C@H](O)[C@@H](O)[C@H](O)[C@@H]2c2cc3c(c(O)c21)OCO3", "values": [
      {"measurement": "TGI", "setting": "[1]", "value": "8.49 µM and 182 nM"},
      {"measurement": "TGI", "setting": "[2]", "value": "> 13.4 µM and 588 nM"},
      {"measurement": "TGI", "setting": "[3]", "value": "780 nM, 5.89 µM, 66.4 nM"},
      {"measurement": "TGI", "setting": "[4]", "value": "1.64 µM and 119 nM"},
      {"measurement": "TGI", "setting": "[5]", "value": "8.69 µM and 269 nM"},
      {"measurement": "TGI", "setting": "[6]", "value": "881 nM, 8.35 µM, 135 nM"},
      {"measurement": "TGI", "setting": "[7]", "value": "> 28.2 µM and 429 nM"},
      {"measurement": "TGI", "setting": "[8]", "value": "1.38 µM and 110 nM"},
      {"measurement": "TGI", "setting": "[9]", "value": "7.65 µM and 329 nM"},
      {"measurement": "TGI", "setting": "[10]", "value": "755 nM, 3.68 µM, 148 nM"},
      {"measurement": "TGI", "setting": "[11]", "value": "22.1 µM and 909 nM"},
      {"measurement": "GI50", "setting": "[12]", "value": "306 nM [1 test] and 30.3 nM [mean of 3 tests]"},
      {"measurement": "TGI", "setting": "[12]", "value": "2.29 µM and 88.2 nM"},
      {"measurement": "TGI", "setting": "[13]", "value": "5.55 µM and 521 nM"},
      {"measurement": "TGI", "setting": "[14]", "value": "926 nM, 1.89 µM, 108 nM"},
      {"measurement": "TGI", "setting": "[15]", "value": "2.39 µM and 85.1 nM"},
      {"measurement": "TGI", "setting": "[16]", "value": "774 nM, 5.55 µM, 327 nM"},
      {"measurement": "TGI", "setting": "[17]", "value": "5.54 µM and 181 nM"},
      {"measurement": "TGI", "setting": "[18]", "value": "> 100 µM and 317 nM"},
      {"measurement": "TGI", "setting": "[19]", "value": "1.96 µM and 92.7 nM"},
      {"measurement": "TGI", "setting": "[20]", "value": "768 nM, 2.49 µM, 206 nM"},
      {"measurement": "TGI", "setting": "[21]", "value": "30.2 µM and 61.7 nM"},
      {"measurement": "TGI", "setting": "[22]", "value": "6.4 µM and 616 nM"},
      {"measurement": "TGI", "setting": "[23]", "value": "886 nM, 1.09 µM, 98.1 nM"},
      {"measurement": "TGI", "setting": "[24]", "value": "> 20.2 µM and 447 nM"},
      {"measurement": "TGI", "setting": "[25]", "value": "561 nM, 3.49 µM, 246 nM"},
      {"measurement": "TGI", "setting": "[26]", "value": "3.6 µM and 147 nM"},
      {"measurement": "TGI", "setting": "[27]", "value": "704 nM, 2.96 µM, 98.2 nM"},
      {"measurement": "GI50", "setting": "[28]", "value": "170 nM [1 test] and 5.98 µM [mean of 3 tests]"},
      {"measurement": "TGI", "setting": "[28]", "value": "465 nM, 14.1 µM, 94.5 nM"},
      {"measurement": "TGI", "setting": "[29]", "value": "9.25 µM and 538 nM"},
      {"measurement": "TGI", "setting": "[30]", "value": "757 nM and 53.7 nM"},
      {"measurement": "GI50", "setting": "[31]", "value": "308 nM [1 test] and 5.51 µM [mean of 3 tests] and 59.3 nM [mean of 8 tests]"},
      {"measurement": "TGI", "setting": "[31]", "value": "881 nM [1 test] and > 15.3 µM [mean of 3 tests] and 307 nM [mean of 8 tests]"},
      {"measurement": "TGI", "setting": "[32]", "value": "4.26 µM and 382 nM"},
      {"measurement": "TGI", "setting": "[33]", "value": "539 nM, 926 nM, 89.2 nM"},
      {"measurement": "TGI", "setting": "[34]", "value": "11.3 µM and 580 nM"}
    ]},
    {"smiles": "C[C@@](O)(/C=C/[C@H]1CC=CC(=O)O1)[C@@H](C[C@@H](O)\\C=C/C=C\\C=C\\CO)OP(=O)(O)O", "values": [
      {"measurement": "TGI", "setting": "[6]", "value": "> 3 mM [1 test] and 188 µM [mean of 9 tests]"},
      {"measurement": "TGI", "setting": "[35]", "value": "> 3 mM [1 test] and 8.35 µM [mean of 7 tests]"},
      {"measurement": "TGI", "setting": "[15]", "value": "> 3 mM [1 test] and 19.1 µM [mean of 9 tests]"},
      {"measurement": "TGI", "setting": "[36]", "value": "300 µM [1 test] and 7.38 µM [mean of 4 tests]"}
    ]},
    {"smiles": "CCN(CC)CCCNc1[nH]ncc2c(C)c3nc4ccccc4c3cc12", "values": [
      {"measurement": "TGI", "setting": "[37]", "value": "1.54 µM and 72.5 nM"}
    ]}
  ]
}
